Data published in patent US4230719A, “Novel 2-[4-(3-methyl-2-thienyl)phenyl]propionic acid and pharmaceutically acceptable salt thereof and method for treating symptoms of inflammation and pain” (Toyama Chemical Co., Ltd., priority 1977, dated 1980).
Read-outs that look alike come from different tables or passages of the source.

How the values were obtained:
[1] = Test for ulcerogenic action (i), single dose, fasted rats; assay type: in vivo; conditions: rat, in vivo, po
Procedure: (§1) (4) Test for ulcerogenic action
(§2) After 18 hours, the rats were killed by suffocation with chloroform and their stomachs were excised. After having been filled with 5 ml of 1% formalin to fix the gastric mucosa, each stomach was incised along the greater curvature to inspect grossly the extent of injury of the gastric mucosa. The extent of injury was scored as follows: 0, no lesion; 1, petechia or erosion; 2, 1-5 small ulcers; 3, many small ulcers; 4, many large ulcers or perforation. The intestinal injury was evaluated based on the incidence of erosion.

[2] = tested on: gastric mucosa and intestine; experiment: as above; assay type: in vivo; conditions: for Gastric glandular score: 18 hours, score 0 (no lesion) to 4 (many large ulcers or perforation)
Procedure: as §1, §2

Wistar strain male rats = experiment: Test for the effect of repeated administration; conditions: 8 rats per group
[3] = read-out: UD50 (gastric glandular)

Structure (SMILES) | TD50 at 18 h [1] [mg/kg] | Intestine erosion incidence ([2]; 10 mg/kg p.o.) | Gastric glandular score ([2]; 10 mg/kg p.o.) | Intestine erosion incidence ([2]; 30 mg/kg p.o.) | Gastric glandular score ([2]; 30 mg/kg p.o.) | Intestine erosion incidence ([2]; 100 mg/kg p.o.) | Gastric glandular score ([2]; 100 mg/kg p.o.) | TD50 at 18 h [1, 3] [mg/kg] | Death / growth disturbance on repeated administration (Wistar strain male rats; 20 mg/kg p.o. repeatedly for one week) | Intestine erosion incidence ([2]; 3 mg/kg p.o.) | Gastric glandular score ([2]; 3 mg/kg p.o.) | Death / growth disturbance on repeated administration (Wistar strain male rats; 5 mg/kg p.o. repeatedly for one week)
Cc1ccsc1-c1ccc(C(C)C(=O)O)cc1 (racemic) [Racemic compound, dl-2-[4-(3-methyl-2-thienyl)phenyl]propionic acid] | 42 | 0/7 | 0.86 ± 0.21 | 0/7 | 1.36 ± 0.30 | 0/7 | 3.07 ± 0.32 |  |  |  |  | 
Cc1ccsc1-c1ccc(C(C)C(=O)O)cc1 (single isomer, unassigned; isomer d) [d-Isomer, d-2-[4-(3-methyl-2-thienyl)phenyl]propionic acid] | 36 | 0/7 | 0.92 ± 0.25 | 0/7 |  | 2/7 | 3.20 ± 0.32 |  |  |  |  | 
O=C(O)Cc1ccccc1Nc1c(Cl)cccc1Cl [Diclofenac sodium] |  | 0/7 | 1.00 ± 0.31 | 0/7 | 1.57 ± 0.43 | 2/7 | 3.79 ± 0.10 | 28 | All the rats of the groups to which Diclofenac sodium and Indomethacin had been administered died |  |  | 
COc1ccc2c(c1)c(CC(=O)O)c(C)n2C(=O)c1ccc(Cl)cc1 [Indomethacin] |  | 0/7 | 1.93 ± 0.40 |  | 3.93 ± 0.07 |  |  | 7.8 |  | 0/7 | 1.00 ± 0.27 | All the rats of the groups to which Diclofenac sodium and Indomethacin had been administered died
